In patent US20250179172A1 (HAINAN SIMCERE ZAIMING PHARMACEUTICAL, published 2025) one finds binding result, OD450 and EC80 data, which are given here for three molecules.

The term EC80 denotes the concentration needed for an effect of 80%. High values mean a need for much substance, low ones an effect from little substance.

The target in assay [1] is T1, murine CD5-His (Sino Biologicals, Cat. No. 50403-M08H) (murine, UniProt P13379 24-371).
T1 construct: also called murine CD5 protein; not shown: His tag
T1 sequence (looked up): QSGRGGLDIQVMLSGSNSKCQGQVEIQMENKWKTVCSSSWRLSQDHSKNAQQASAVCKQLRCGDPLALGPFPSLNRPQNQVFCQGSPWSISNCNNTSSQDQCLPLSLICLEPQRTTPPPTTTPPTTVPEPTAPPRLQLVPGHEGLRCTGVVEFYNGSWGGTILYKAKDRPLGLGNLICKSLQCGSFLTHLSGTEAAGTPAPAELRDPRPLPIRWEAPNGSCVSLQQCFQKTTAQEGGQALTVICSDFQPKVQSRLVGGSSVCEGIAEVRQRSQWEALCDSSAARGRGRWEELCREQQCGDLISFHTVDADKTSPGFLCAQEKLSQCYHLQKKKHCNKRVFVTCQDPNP
Kind of assay: ELISA on coated murine CD5-His. The method, then: (§1) The binding activity of the H65 antibody prepared above with human CD5 protein was subjected to ELISA assay. A purchased commercial antigen (human CD5-His) was diluted with PBS to obtain a final concentration of 2 μg/mL, and then added to a 96-well ELISA plate with 100 µL/well. The plate was sealed with a plastic film and incubated at 4° C. over the night, washed twice with PBS in the next day, added with a blocking solution [PBS+2% (w/w) BSA] and blocked at room temperature for 2 h. The blocking solution was drained out, and 100 nM of the H65 antibody or negative control antibody hIgG1 after gradient dilution was added, namely, the obtained product was the antibody Anti-HEL-hIgG1 against hen egg lysozyme (purchased from Biointron, Cat. No. B117901) with 50 μl per well. After incubation for 2 h at 37° C., the plate was washed for 3 times with PBS. A secondary antibody labeled with HRP (horseradish peroxidase) (A0170, purchased from Sigma) was added. After incubation for 2 h at 37° C., the plate was washed for 5 times with PBS. A TMB substrate was added with 50 μL/well and incubated at room temperature for 30 min, then a stop solution (1.0 N HCl) was added with 50 μL/well.
(§2) To assay the species cross-activity of the VHH-hFc, ELISA plates were coated with commercial murine CD5-His (CD5 (Sino Biologicals, Cat. No. 50403-M08H)), and ELISA assays were performed according to the method described in Example 2.2. […] The negative control is hIgG1 and NB145 serves as the positive control (NB145 has been verified to be bound to murine CD5); data in the table are values of OD_{450 nm}.
(In general: ELISA stands for enzyme-linked immunosorbent assay.)

The target in assay [2] is T1, murine CD5-His (Sino Biologicals, Cat. …). The assay can be described thus: ELISA on murine CD5-His, antibody 0.01 nM. The procedure:
as §1, §2

Assay [3] has the same target. The assay can be described thus: ELISA on murine CD5-His, antibody 0.10 nM. The procedure:
as §1, §2

For assay [4] the target is unchanged. Kind of assay: ELISA on murine CD5-His, antibody 1.00 nM. The method, then:
as §1, §2

Assay [5] shares this target. Kind of assay: ELISA on murine CD5-His, antibody 10.00 nM. The procedure:
as §1, §2

Assay [6] has the same target. The assay can be described thus: ELISA on murine CD5-His, antibody 100.00 nM. The method, then:
as §1, §2

Assay [7] has the same target. Kind of assay: ELISA on murine CD5-His, antibody '0.000' nM as printed. The procedure: as §1, §2
Assay [8] deals with T2, human CD5 (Arg25-Pro372)-His protein (Acro, Cat. No. CD5-H52H5) (human, UniProt P06127 25-372).
T2 construct: range 25-372; also called human CD5-His; hCD5-His; not shown: His tag
T2 sequence (looked up): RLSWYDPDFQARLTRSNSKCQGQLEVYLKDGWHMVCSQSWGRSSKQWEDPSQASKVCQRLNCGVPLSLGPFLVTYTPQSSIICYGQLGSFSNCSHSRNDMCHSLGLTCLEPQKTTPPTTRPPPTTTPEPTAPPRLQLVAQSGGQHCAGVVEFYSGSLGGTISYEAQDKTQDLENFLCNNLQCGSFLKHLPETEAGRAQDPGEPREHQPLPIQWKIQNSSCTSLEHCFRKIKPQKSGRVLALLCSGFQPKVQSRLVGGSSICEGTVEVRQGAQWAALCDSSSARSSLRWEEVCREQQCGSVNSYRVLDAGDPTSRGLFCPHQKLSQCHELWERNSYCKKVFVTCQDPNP
Kind of assay: ELISA, antibody coated at 2 µg/mL, human CD5-his titrated from 30 µg/mL; the EC80 is a concentration of CD5-his. The method, then: VHH-hFc was subjected to epitope classification with competitive ELISA. ELISA plates were coated with 2 μg/mL antibodies according to the method described in Example 4.1; the human CD5-his protein was subjected to a gradient dilution from 30 μg/mL, and EC₈₀ values (Table 13) were calculated and applied to the next step of epitope analysis. ELISA plates were coated with 2 μg/mL antibodies; after 25 μg/mL of antibodies to be tested were added, a hCD5-his protein having a EC₈₀ concentration corresponding to each of the antibodies to be tested was then added for incubation for 2 h; the plates were washed for 5 times with PBS and HRP-labeled anti-His antibodies (GenScript, Cat. No. A00612) were added for assay. The coated antibody may bind to the antibody-to be tested-hCD5-his antigen complex in the solution if no competitive relation exists between the coated antibody and the antibody-to be tested in the solution. Moreover, OD_{450 nm} absorbance was detected and an inhibition ratio between each pair of antibodies was calculated according to the OD_{450 nm} absorbance (FIGS. 13A-3B).

B1: S005-NB144-7 VHH-hFc (Fc fusion)
chain: EVQVVESGGGLVQAGGSLRLSCAASGSIFSINLLGWYRQAPGKERESVAILSSGGSTYYADSVKGRFTISRDNVKNMLYLQMNSLKPEDTAVYYCNAVGGIATLRDYWGQGTQVTVSS[human IgG1 Fc with changes not printed]
notes: VHH fused to human IgG1 Fc; no linker stated
Regarding B1, in assay [1], the binding result is “no binding (tested: 100 nM)”. Moreover, the OD450 stood at 0.09 OD450 in assay [2]; 0.09 OD450 in assay [3]; 0.09 OD450 in assay [4]; 0.1 OD450 in assay [5]; 0.12 OD450 in assay [6]; 0.09 OD450 in assay [7]. This molecule also registered an EC80 in assay [8] of 0.67 µg/mL.

B2: S005-NB144-31 VHH-hFc (Fc fusion)
chain: EVQVVESGGGLVQPGGSLRLSCAASGFTLDYYAIGWFRQAPGKEREGLSCISTSGGSTNYADSVKGRFTISRDNAKNTVYLQMNSLKPEDTAVYYCAASSFWDCAVVGTGSPKTGHLESVFGSWGQGTQVTVSS[human IgG1 Fc with changes not printed]
notes: VHH fused to human IgG1 Fc; no linker stated; also called S002-NB144-31
Consider B2, for which the binding result in assay [1] was “no binding (tested: 100 nM)”. Also, the OD450 in assay [2] is 0.09 OD450; in assay [3], 0.1 OD450; in assay [4] it was 0.1 OD450; in assay [5], 0.1 OD450; in assay [6], 0.11 OD450; in assay [7] it was 0.09 OD450. In assay [8], this molecule displayed an EC80 of 0.11 µg/mL.

B3: S005-NB144-6 VHH-hFc (Fc fusion)
chain: QVQLVESGGGLVQAGGSLRLSCAASGSIFSISVMGWYRQAPGKERETVAVISSGGSTYYADSVKGRFTISRDNAKNTLYLQMNSLKPEDTAVYYCNADFETASGSPLYESWGQGTQVTVSS[human IgG1 Fc with changes not printed]
notes: as for B1
In the case of B3, the binding result in assay [1] is “no binding (tested: 100 nM)”. Besides, the OD450 was determined as 0.09 OD450 in assay [2]; 0.09 OD450 in assay [3]; 0.1 OD450 in assay [4]; 0.09 OD450 in assay [5]; 0.11 OD450 in assay [6]; 0.09 OD450 in assay [7]. In assay [8], this molecule showed a concentration for an effect of 80% (EC80) of 1.59 µg/mL.
